# Reference: PubChem BioAssay AID2147 (National Center for Advancing Translational Sciences (NCATS), 2009)
# “And” between values parts separate entries of the source, which are not always exact repeats. Equal values may be shown once. About 3,600 (1.6%) of roughly 230,000 compounds were called active. Inconclusive means that the source gave no clear call. Such entries were picked first, then a sample of the others. Calls follow the shape of the dose curve; as a rule, active = well fitted inhibition curve with a large enough effect (not every such curve was filed as active); inconclusive = small, poorly fitted or top-dose-only effect, or another doubt; inactive = no such curve, though single readings can be large or run the other way. Potencies of inconclusive entries are doubtful fits and often do not repeat.
# Target: Lysine-specific demethylase 4E (Homo sapiens) (UniProt B2RXH2)
# Chain of UniProt B2RXH2 (B2RXH2 whole entry, looked up, the tested form may be a part): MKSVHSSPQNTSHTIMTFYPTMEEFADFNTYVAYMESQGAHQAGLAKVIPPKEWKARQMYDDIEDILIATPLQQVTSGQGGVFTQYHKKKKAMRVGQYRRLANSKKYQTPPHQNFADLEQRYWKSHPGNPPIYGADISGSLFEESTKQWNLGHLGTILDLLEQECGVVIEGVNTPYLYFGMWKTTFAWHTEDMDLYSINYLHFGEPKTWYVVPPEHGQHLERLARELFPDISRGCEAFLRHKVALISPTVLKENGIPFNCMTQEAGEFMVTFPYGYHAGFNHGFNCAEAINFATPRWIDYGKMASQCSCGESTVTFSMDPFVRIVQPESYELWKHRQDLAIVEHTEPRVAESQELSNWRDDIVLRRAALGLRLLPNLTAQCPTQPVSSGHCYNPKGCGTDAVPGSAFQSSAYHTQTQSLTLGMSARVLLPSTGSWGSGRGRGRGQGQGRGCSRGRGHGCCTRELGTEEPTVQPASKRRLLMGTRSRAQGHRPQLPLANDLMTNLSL
# Test: qHTS Assay for Inhibitors of Human Jumonji Domain Containing 2E (JMJD2E)
# Settings: JMJD2E catalytic domain, FDH-coupled NADH fluorescence (FDH is formaldehyde dehydrogenase); series mostly up to 57.1 µM
# Also: nearly all actives have a fitted effect of over 50% in size.
# Potency is read from the fitted curve at half-maximal effect; tags tell the direction and shape of the fitted curve.
row,Structure (SMILES),Potency
1,COc1ccccc1N1CCN(Cc2ccc(OC)c3ccccc23)CC1,"inconclusive: 39.8 µM [inhibitor, single point]"
2,Cc1ccccc1-c1cncnc1N(C)Cc1ccco1,"inconclusive: 39.8 µM [inhibitor, single point]"
3,CCOC(=O)c1ccc(NC2=CC(=O)C(=O)c3ccccc32)cc1,"inconclusive: 17.8 µM [inhibitor, partial curve, poor fit]"
4,CSc1cc(-c2ccccc2)[nH]c(=O)c1C#N,"inconclusive: 25.1 µM [inhibitor, single point]"
5,Cc1oc(-c2ccc3c(c2)OCCO3)cc1C(=O)NC(CCC(=O)O)C(=O)O (stereo not drawn),"inconclusive: 28.2 µM [inhibitor, single point]"
6,O=C(Nc1cccc(S(=O)(=O)N2CCCCC2)c1)c1ccccn1,inactive
7,COc1ccc(NC(=O)Cc2c(F)cccc2Cl)c(OC)c1,inactive
8,COc1ccc(-n2cccc2/C=C/[N+](=O)[O-])cc1,"inconclusive: 3.16 µM [inhibitor, full curve]"
9,CC(=O)c1nn(-c2cccc(Br)c2)cc1C(=O)c1ccc(Cl)cc1,inactive
10,Nn1c(-c2ccc(O)cc2)nnc1-c1ccc(O)cc1,inactive
11,CC1=CN2C(=NC(=O)CC2(C)C(=O)N(CC(=O)NC2CCCC2)c2cc(C)cc(C)c2)C=C1 (stereo not drawn),"inconclusive: 31.6 µM [inhibitor, partial curve]"
12,Cc1cc(C)nc(SCc2ccc(C(=O)N/N=C/c3ccccn3)cc2)n1,"inconclusive: 39.8 µM [inhibitor, single point]"
13,Nc1cc2c(cc1O)CCCC2,"inconclusive: 22.4 µM [inhibitor, single point]"
14,CCOC(=O)C(=O)NCc1ccc(/C=C2/N=C(C)C(C(=O)OCC)=C2O)o1,"inconclusive: 31.6 µM [inhibitor, single point]"
15,N#Cc1c(NC(=O)CCn2cnc3ccccc3c2=O)oc(-c2ccccc2)c1-c1ccccc1,"inconclusive: 39.8 µM [inhibitor, single point]"
16,COc1ccc(CNc2ccc(S(N)(=O)=O)cc2)c(OC)c1OC,"inconclusive: 39.8 µM [inhibitor, single point]"
17,COc1ccc2c(-c3ccccc3)cc(SCC(=O)NC3CCS(=O)(=O)C3)nc2c1 (stereo not drawn),"inconclusive: 35.5 µM [inhibitor, single point]"
18,CCOc1cc(C2Nc3ccccc3C(=O)N2c2ccccc2)ccc1O (stereo not drawn),"inconclusive: 28.2 µM [inhibitor, partial curve]"
19,O=C(OCc1csc(-c2ccccc2)n1)c1ccccc1O,"inconclusive: 12.6 µM [inhibitor, partial curve]"
20,CCC(C)(C)NC(=O)C(c1ccncc1)N(Cc1ccc(C)cc1)C(=O)c1csnn1 (stereo not drawn),"inconclusive: 39.8 µM [inhibitor, single point]"
21,N#Cc1sc2nc(N3CCCCC3)c3c(c2c1N)CCCC3,"inconclusive: 31.6 µM [inhibitor, partial curve]"
22,Brc1ccc2c(c1)C(c1cccs1)=NNC(c1cccnc1)=N2,inactive
23,COc1ccccc1N1CCN(C(=O)c2ccc3nc(-c4ccco4)c(-c4ccco4)nc3c2)CC1,"inconclusive: 39.8 µM [inhibitor, single point]"

row,Structure (SMILES),Potency
1,CCCCOP(=O)(OCCCC)C1(NS(=O)(=O)c2ccccc2)C=CC(=O)c2ccccc21 (stereo not drawn),inactive
2,COc1ccc(C(=O)Nc2ccc3c(c2)Cc2ccccc2-3)cc1,"inconclusive: 3.55 µM [inhibitor, partial curve]"
3,COc1ccc(C(=O)OC(C)C(=O)Nc2cc(C(F)(F)F)ccc2Cl)c(OC)c1OC (stereo not drawn),"inconclusive: 35.5 µM [inhibitor, single point]"
4,CCOC(=O)c1c(-c2ccncc2)csc1N,inactive
5,O=C(Nc1nc2nccc(-c3ccccc3)n2n1)c1ccccc1,"inconclusive: 28.2 µM [inhibitor, single point]"
6,Cc1ccc2[nH]c(C)c(CCNC(=O)c3c(N)no[n+]3[O-])c2c1,inactive
7,CCc1cc(-c2[nH]ncc2-c2ccc3c(c2)OCO3)c(O)cc1O,"inconclusive: 35.5 µM [inhibitor, single point]"
8,Fc1cccc(Cc2noc(CN3CCN(C4CCc5ccccc5C4)CC3)n2)c1 (stereo not drawn),"inconclusive: 35.5 µM [inhibitor, single point]"
9,Cc1cccnc1NC(=S)Nc1ccc(Br)cc1Cl,"inconclusive: 35.5 µM [inhibitor, single point]"
10,COc1ccc(C2Nc3ccccc3C(=O)N2c2ccc(F)cc2)cc1Cn1nnc2ccccc21 (stereo not drawn),"inconclusive: 31.6 µM [inhibitor, partial curve]"
11,COc1ccc(NC(=O)CN2CCN(CC(=O)Nc3ccccc3F)CC2)cc1OC,"inconclusive: 35.5 µM [inhibitor, single point]"
12,CCOC(=O)c1ccc(N2CC(O)=C(c3nc4ccccc4c(=O)[nH]3)C2=N)cc1,"inconclusive: 12.6 µM [inhibitor, partial curve]"
13,CCN(Cc1ccccc1)c1ccc(/C=C(\C#N)c2ccccn2)cc1,"inconclusive: 39.8 µM [inhibitor, single point]"
14,CCC(=O)Nc1ccc(-c2nnc(SCC(=O)N3CCCCC3)n2C)cc1,inactive
15,Cc1ccc2oc(-c3cccc(NC(=S)NC(=O)c4cccs4)c3)nc2c1,"inconclusive: 28.2 µM [inhibitor, partial curve]"
16,CC1CCN(S(=O)(=O)c2ccc(C(=O)Nc3ccccc3-c3nc4ccccc4[nH]3)cc2)CC1,"inconclusive: 22.4 µM [inhibitor, partial curve]"
17,O=C(O)c1c2ccccc2cc2ccccc12,"inconclusive: 31.6 µM [inhibitor, partial curve] and inconclusive: 28.2 µM [inhibitor, partial curve]"
18,CN(C)c1ccc(/C=N/NC(=O)C2COc3ccccc3O2)o1 (stereo not drawn),inactive
19,Cc1cccc(OCc2nc(C)cc(=O)[nH]2)c1,inactive
20,CCc1cc(/C(Cc2ccccn2)=N\O)c(O)cc1O,"inconclusive: 39.8 µM [inhibitor, single point]"
21,CC1(C)CC(=O)C2=C(C1)Nc1ccccc1S2,inactive
22,Cc1ccc2nc(-c3ccc(NC(=S)NC4CC(C)(C)NC(C)(C)C4)cc3)sc2c1,"inconclusive: 28.2 µM [inhibitor, partial curve]"
23,N#Cc1c(-c2cccs2)cc(-c2cccs2)[nH]c1=O,"inconclusive: 1.78 µM [inhibitor, partial curve]"

row,Structure (SMILES),Potency
1,Cc1ccc2nc3c(cc(C#N)c(=N)n3Cc3cccnc3)c(=O)n2c1,"inconclusive: 5.01 µM [inhibitor, single point]"
2,S=c1[nH]nc(-c2n[nH]c3c2CCC3)n1/N=C/C=C/c1ccco1,active: 28.2 µM
3,CCn1cc(C(=O)O)c(=O)c2cc(F)c(N3CCN(C(=S)NC(=O)c4ccccc4)CC3)cc21,"inconclusive: 22.4 µM [inhibitor, partial curve]"
4,CCOCCCn1c(=NC(=O)c2cccnc2)c(C(=O)OCC)cc2c(=O)n3ccccc3nc21,"inconclusive: 31.6 µM [inhibitor, partial curve]"
5,CC(C)C(=O)Nc1ccc(C(=O)Nc2nnc(C(C)(C)C)s2)cc1,"inconclusive: 39.8 µM [inhibitor, single point]"
6,O=C(CCN1C(=O)c2cccc3cccc(c23)C1=O)N1CCN(Cc2ccc3c(c2)OCO3)CC1,"inconclusive: 28.2 µM [inhibitor, single point]"
7,CCOC(=O)CC1=NN(c2ccccc2)C(=O)/C1=C\c1ccc(OC)cc1OC,"inconclusive: 17.8 µM [inhibitor, partial curve]"
8,CC(NC(=O)c1cc(-c2ccc3c(c2)OCO3)nc2ccccc12)C(C)(C)C (stereo not drawn),"inconclusive: 35.5 µM [inhibitor, single point]"
9,CCOC(=O)c1ccc(Nc2sc(C(=O)c3cccc([N+](=O)[O-])c3)c(N)c2C#N)cc1,inactive
10,CC(C)(C)c1cc(C(=O)NNC(=O)c2ccc(Cl)cc2)no1,inactive
11,Cc1cc(=O)oc2ccc(OCC(=O)O)cc12,"inconclusive: 28.2 µM [inhibitor, partial curve]"
12,O=C1C(c2ccccc2)SC(=Nc2ccccc2)N1S(=O)(=O)c1ccccc1 (stereo not drawn),inactive
13,COc1cc2[nH]c3c(N4CCC(C(N)=O)CC4)ncnc3c2cc1OC,"inconclusive: 35.5 µM [inhibitor, partial curve]"
14,CCCN(CCO)CCCc1ccccc1,"inconclusive: 35.5 µM [inhibitor, single point]"
15,CCOC(=O)c1nc2cc3n(c(C)c-2c1C)C(C)C(C)=C3C (stereo not drawn),"inconclusive: 25.1 µM [inhibitor, partial curve]"
16,CCn1c2ccccc2c2nnc(SCC(=O)OCN3C(=O)c4ccccc4C3=O)nc21,inactive
17,Cc1ccc(NC(=O)c2ccccc2F)nc1,"inconclusive: 25.1 µM [inhibitor, partial curve]"
18,O=C(O)CCC(=O)NNc1nc2ccccc2nc1-c1ccccc1,"inconclusive: 35.5 µM [inhibitor, single point]"
19,COc1ccc(CN=C2NN=C(c3ccccc3)CS2)cc1,"inconclusive: 39.8 µM [inhibitor, single point]"
20,C=CCn1c(CNc2ccc(C)cc2)nnc1SCC(=O)N/N=C/c1ccc(O)cc1,inactive
21,Cc1ccc(NC(=S)Nc2ccc3nc(-c4ccccn4)c(-c4ccccn4)nc3c2)cc1C,"inconclusive: 20 µM [inhibitor, partial curve]"
22,CN(C)c1ccc(NC(N)=S)cc1,inactive
